Results: the supplement of paper PMC10338343
± gives the standard deviation. The list shows a part of the results, in another mix than the full data.

What follows are sequences tested on MIWI (PIWIL1) piRISC loaded with piRNA #1 (30 nt) (assay: pre-steady-state target cleavage rate (min^-1); MIWI and MILI are mouse PIWI proteins and EfPiwi is from a freshwater sponge; tags in brackets are library labels; higher = faster piRNA-guided slicing of the target). Conditions: guide: piRNA #1 5'p-UGAGGUAGUAGGUUGUAUAGUAUCCAGAGG; auxiliary factor: 500 nM mouse GTSF1.
Procedure, shortened: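 A transcribed, DNA-blocked target RNA library (0.1 nM) and 1 nM active affinity-purified piRISC bearing one synthetic guide were incubated in HEPES–potassium acetate buffer at 33 °C for 0–8 or 0–960 min, either with or without 500 nM GTSF1 partner protein. Uncleaved targets were sequenced, normalised to depth and to weakly complementary targets, and pooled over three trials, with k3 capped at 0.0001 min^-1. The pre-steady-state cleavage rate was derived with a burst-and-steady-state fit.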

Row | Sequence | pre-steady-state target cleavage rate
1 | GGAGUGGAUACUUUACAAGCUACUACCUCA | 0.882 ± 0.051
2 | GGAGACGAUACUAUACAACCUAGUACCACA | 0.209 ± 0.065
3 | GGAGACCUAUCUAUACAACCUACUACCCUCA | 0.661 ± 0.06
4 | GGAGUGGAUACUAUACAACCUAGAACCUCA | 0.0628 ± 0.014
5 | CCUCUGGAUACUAUACAACCUACUAGGAGA [g6:g30:cont:t1A] | 0.0261 ± 0.0073
6 | GGAGACCUAUGAAGUACAACCUACUACCUCA | 0.00467 ± 0.0028
7 | GGAGAGGAUACUAUACAACCAACUACCUGA | 0.0617 ± 0.0077
8 | GGAGACCUUAAUAUACAACCUACUACCUCA | 0.181 ± 0.02
9 | GGACUGGAAACUAUACAACCAACUACCUCA | 0.0617 ± 0.0089
10 | CCUCUGGAAUACUAUACAACCUACUACCUCA | 2.19 ± 0.13
11 | CCUCUGGAUACAUACAACCUACUACCUCA | 1.65 ± 0.13
12 | GGAGACGAUACUAUAGAACCUUCUACCUCA | 0.156 ± 0.019
13 | GGAGACCUAUGAUAUGUUGGUACUAACCUCA | < 0.0001
14 | GGUCUGGAUACUAUUGUACCUACUACCUCA | 0.0445 ± 0.0099
15 | CCUCUGGAUACUAUCCAACCUACUACCUCA | 2.1 ± 0.14
16 | GGAGACCUAUGAAUACAACCUCACUACCUCA | 0.00824 ± 0.0026
17 | GGUCUGGAUACUAUACAAGCUUCUACCUCA | 0.163 ± 0.014
18 | GGAGACCUAUGAUAUGUUGCUACUCACCUCA | < 0.0001
19 | GGACUGGAUACUAUACAACCUACAUCCUCA | 0.0189 ± 0.0037
20 | GGAGACCUAUCUAUACAACGUACUACCUCA | 0.216 ± 0.029

Row | Sequence | pre-steady-state target cleavage rate
21 | GGAGACCUUACUAUACAACCUACUCACCUCA | 0.792 ± 0.062
22 | CCUCUCGAUACUAUACAACCUAGUACCUCA | 0.406 ± 0.047
23 | CCUCUGGAUACUACACAACCUACUACCUCA | 1.97 ± 0.12
24 | CCUCAGGAUACUAUACAACCUUCUACCUCA | 0.767 ± 0.04
25 | GGAGACCUUACUAUACUACCAACUACCUCA | 0.00369 ± 0.0019
26 | GCUCUGGUAUCUAUACAACCUACUACCUCA | 1.78 ± 0.095
27 | GGAGACCAUACUAUACAUCCUACUACCUCA | 1.23 ± 0.082
28 | GGAGUGGAUUCUAUACAACCUACUACGUCA | 0.522 ± 0.048
29 | GGUCUGGAAACUAUACAACCUACUACCUCA | 1.8 ± 0.12
30 | GGAGAGGAUUCUAUACUACCUACUACCUCA | 1.13 ± 0.09
31 | GGAGACCUAUGUAUACAACCUACUGCCUCA | 0.013 ± 0.0027
32 | CGUCUGGAUACUAUAGAACCUACUACCUCA | 0.382 ± 0.051
33 | GGAGAGGAUACUAUAGAACCUACUUCCUCA | 0.00722 ± 0.0046
34 | GGAGACGAUUCUAUACAAGCUACUACCUCA | 1.12 ± 0.065
35 | GCUGUGGAUACUAUACAAGCUACUACCUCA | 1.16 ± 0.062
36 | CCUCUGGAUACUAUACAACCUACUACGCUCA | 1.73 ± 0.11
37 | GGAGAGGAUACUAAACAACCUACUAGCUCA | 0.265 ± 0.03
38 | GGAGACCUAUCUUUACAACCUACUACGUCA | 0.146 ± 0.027
39 | CCUCUGGAUACUAUACUAGCUACUACCUCA | 0.697 ± 0.049
40 | GGACUGGAUACUAUACAACCUACUAGCCUCA | 0.501 ± 0.074
